In PubChem BioAssay AID1671193 (National Center for Advancing Translational Sciences (NCATS), 2021):
About 180 (0.12%) of roughly 150,000 compounds were called active. Inconclusive results, whose numbers are uncertain, are shown with a selection of clear calls. The call rests on the fitted dose curve; in most records, active means well fitted cell-killing curve with a large enough effect; inconclusive means small, poorly fitted or top-dose-only effect, or effect the other way; inactive means flat fitted curve, though single readings scatter. Where the call is inconclusive, the potency comes from a doubtful curve fit.

experiment: GF-AFC viability counterscreen for inhibitors of alpha-synuclein gene (SNCA) expression; settings: HEK-293-SNCA-luc viability, GF-AFC fluorescence, 24 h; activity change, negative = cytotoxicity: at 57.1 µM (top of the series) unless noted; further: nearly all actives have a fitted effect of over 30% in size
Text: Assay Submitter (PI): Daniel R. Scoles Ph.D.
Department of Neurology, University of Utah, Salt Lake City, Utah
Accumulation of alpha-synuclein is a main underlying pathological feature of Parkinson's disease (PD) and alpha-synucleinopathies, for which lowering expression of the alpha-synuclein gene (SNCA) is a potential therapeutic avenue. Using a cell-based luciferase reporter of SNCA expression we performed a quantitative high throughput screen (qHTS) of 155,885 compounds in dose response. The screening assay was generated using genome editing to insert the luciferase gene downstream and in frame of the SNCA gene in HEK-293 cells (1). A viability counterscreen using GF-AFC was used to eliminate cytotoxic and false positive compounds. After in silico analysis (clustering, removal of frequent hitter nuisance chemotypes), inhibitor compounds from the primary screen were selected for follow up and re-tested at 11-doses in the SNCA-luc cells (luciferase and GF-AFC confirmation), and in CMV-luc expressing cell line to flag general transcriptional repressors.
Described herein are the results of the GF-AFC viability counterscreen for SNCA inhibitors; inactivity (no decrease in fluorescence signal, not cytotoxic) is the desired output for this assay.
1. Dansithong, W., Paul, S., Scoles, D. R., Pulst, S. M., and Huynh, D. P. (2015) Generation of SNCA Cell Models Using Zinc Finger Nuclease (ZFN) Technology for Efficient High-Throughput Drug Screening. PLoS ONE 10, e0136930.
SEQUENCE No. (e.g., 1, 2, 3, etc.); […] (e.g., Cells, Incubation, Reagent, etc.); VALUE; DESCRIPTION
1; Cells; 4 uL; Dispense 1500 HEK-293-SNCA-luc cells/well into Greiner 1536-well white / solid bottom tissue culture treated plate. The plate was covered with metal lids with gas-exchange holes.
2; Incubate; 24 hours; Incubate at 37C, 5% CO2, 95% RH.
3; Compounds; 23 nL; Compounds and controls were transferred via a Kalypsys Pin Tool (Wako USA) equipped with a 1536-slotted pin array. The plate was covered with metal lids with gas-exchange holes.
4; Incubate; 24 hours; Incubate at 37C, 5% CO2, 95% RH.
5; Dispense; 1 uL; Dispense Gly-Phe-7-amino-4-trifluoromethylcoumarin (GF-AFC, prepared at 125 uM in PBS) was added. The plate was covered with metal lids with gas-exchange holes.
6; Incubate; 30 min; Incubate at 37C, 5% CO2.
7; Detector; Fluorescence; Measure fluorescence with ViewLux microplate reader (PerkinElmer) equipped with 405/10 excitation and 540/25 emission filters.
8; Dispense; 3 uL; Dispense ONE-Glo ([…]) lucifase detection reagent was added to each well. Plates were covered with metal lids with gas-exchange holes.
9; Incubate; 15 min; Incubate at room temperature.
10; Detector; Luminescence; Measure luminescence with ViewLux microplate reader (PerkinElmer) equipped with clear filters.
NOTES (numbers refer to sequence above)
1; HEK-293-SNCA-luc were cultured and suspended in phenol-red free DMEM (4.5 g/L glucose, 25 mM HEPES, cat #21063 (Thermo)).
3; Compounds were added to the assay plate in an 11-point intra plate dose response, 1:3 titration in DMSO with a final concentration range of […]. Vehicle-only plates, with DMSO being pin-transferred to every well, were inserted at the beginning of screening runs to confirm expected assay performance. Activity was normalized to wells containing medium only (-100% activity, full inhibition) and SNCA-luc cells treated with DMSO vehicle control (0% activity), contained on the same plate as test samples.
10; Signals were analyzed, and dose-response curves were fit using the Hill equation. Compounds in curve classes -1.1, -1.2, -2.1, -2.2 in the SNCA-luc assay were considered active. Compounds were eliminated from further consideration if also active (curve class -1.1, -1.2, -1.3, -1.4, -2.1, -2.2, -2.3, -2.4) in the GF-AFC cytotoxicity assay.
Potency means the concentration at half of the fitted maximal effect; tags describe the fitted curve by direction and shape.

Q: For `Cc1cnc(C2CCOCC2)n1CC1CCN(C(=O)c2cccnc2)CC1`, which Potency is on record?
A: Its Potency is inconclusive: 6.31 µM [cytotoxic, single point].

Q: For `CCCCCN(CCC12CC3CC(CC(C3)C1)C2)C(=O)NCCCc1ccncc1`, which Potency is on record?
A: Its Potency is inconclusive: 37.7 µM [cytotoxic, single point].

Q: With `COCc1cc(C)nc2sc3c(c12)NC(c1ccc(O)c(OC)c1)N(c1ccccc1)C3=O` (stereo unspecified) as the compound, how does the Potency read?
A: The Potency was inconclusive: 17.8 µM [rising, single point].

Q: With `Cc1ccc(O)c(NC(=O)CCSc2nc(-c3ccco3)cc(C(F)(F)F)n2)c1` as the compound, how does the Potency read?
A: Its Potency is inconclusive: 2.24 µM [cytotoxic, full curve, poor fit].

Q: Which Potency does the source give for `CC(=O)N(C1CCOCC1)C1CCN(S(=O)(=O)c2cc(F)ccc2C)CC1` here?
A: The Potency was inconclusive: 7.08 µM [cytotoxic, single point].

Q: With `CC(=O)N1CCn2c(nn(-c3ccc(C)cc3)c2=O)C1` as the compound, how does the Potency read?
A: The Potency was inconclusive: 5.62 µM [cytotoxic, full curve, poor fit].

Q: Which “activity change, negative = cytotoxicity” value does the source give for `COc1ccc(-c2cc(N3CCC(NC(=O)Cc4ccc(Cl)cc4)CC3)n[nH]2)cc1` here?
A: The value was inactive: -13.6%.

Q: For `CC(C)NC(=O)N[C@H]1C[C@@H](Cc2cc(CN(C)c3ccccc3)on2)C1(C)C`, which “activity change, negative = cytotoxicity” value is on record?
A: Its value is inactive: -12.3% [at 87.6 µM].

Q: Which Potency does the source give for `CC(NC(=O)c1cc(-c2ccc(Cl)cc2)on1)c1ccccc1` (stereo unspecified) here?
A: The Potency was inconclusive: 2.51 µM [cytotoxic, single point].

Q: Which Potency does the source give for `Cc1ccc2nc(C3CCCN(Cc4cccc(-c5cccs5)c4)C3)[nH]c(=O)c2c1` (stereo unspecified) here?
A: The Potency was “inactive”.

Q: For `Cc1cc(Nc2cccc(C(F)(F)F)c2)nc2ccc(NC(=O)c3cccnc3)cc12`, which Potency is on record?
A: The Potency was inconclusive: 25.1 µM [cytotoxic, single point].

Q: With `Cc1noc(-c2cccc(F)c2)c1C(=O)NCc1ccc2c(c1)OCO2` as the compound, how does the Potency read?
A: The Potency was inconclusive: 39.8 µM [cytotoxic, single point].

Q: With `Cc1ccccc1Oc1c(CCC(=O)NCC2CC2)c(C)nn1-c1ccc(F)cc1` as the compound, how does the “activity change, negative = cytotoxicity” value read?
A: Its value is inactive: 8.92%.

Q: With `CCOCCCNC(=O)C1CCCN1Cc1cccc(-c2cccc(OC)c2)c1` (stereo unspecified) as the compound, how does the “activity change, negative = cytotoxicity” value read?
A: Its value is inactive: -5.05%.

Q: With `CN(Cc1ccccc1)C(=O)c1ccc2c(c1)NC(C)(COc1ccccc1)CO2` (stereo unspecified) as the compound, how does the Potency read?
A: Its Potency is inconclusive: 50.1 µM [cytotoxic, single point].

Q: Which Potency does the source give for `Cc1cccc(OCCSc2nc3ccccc3n2CC(=O)N2CCOCC2)c1C` here?
A: The Potency was inconclusive: 2 µM [cytotoxic, full curve, poor fit].

Q: Which “activity change, negative = cytotoxicity” value does the source give for `COc1ccccc1-c1nc(C(=O)NC2CC2)n2ccncc12` here?
A: Its value is inactive: 5.71% [at 87.6 µM].

Q: With `Cc1ccccc1CS(=O)(=O)c1ncc(Cl)c(C(=O)Nc2nnc(C(C)C)s2)n1` as the compound, how does the Potency read?
A: Its Potency is inconclusive: 39.8 µM [cytotoxic, single point].

Q: Which “activity change, negative = cytotoxicity” value does the source give for `COc1cc(OC)cc(C(=O)N2CCC(Cc3nc(-c4cnccn4)no3)CC2)c1` here?
A: Its value is inactive: -4.63%.

Q: With `CSc1ccc(-c2ccc3c(c2)C(=O)N2CC[C@H](NC(=O)c4cccs4)C[C@H]2C(=O)N3)cc1` as the compound, how does the “activity change, negative = cytotoxicity” value read?
A: The value was inactive: 4.39%.

Q: For `CCOC(=O)c1cc(OC(=O)c2cccc(F)c2)n(-c2ccccc2)n1`, which Potency is on record?
A: The Potency was inconclusive: 3.55 µM [rising, full curve, poor fit].

Q: Which Potency does the source give for `Cc1cccn2c(=O)c3cc(C(=O)NC(C)c4ccccc4)c(=N)n(CCOCCO)c3nc12` (stereo unspecified) here?
A: Its Potency is inconclusive: 4.47 µM [rising, single point].

Q: Which Potency does the source give for `COc1ncccc1-c1cc2c(nc1-c1ccccc1)nc(C(=O)NCCN(C)C)n2C` here?
A: Its Potency is inconclusive: 56.2 µM [cytotoxic, single point].

Q: Which “activity change, negative = cytotoxicity” value does the source give for `O=C(NCc1ccc(F)cc1)C1CCc2nnc(C3CCN([S+](=O)([O-])c4ccccc4Cl)CC3)n21` (stereo unspecified) here?
A: Its value is inactive: 6.64%.

Q: With `COc1cccc(C(=O)NCCn2ccn3nc(-c4ccc(F)cc4)cc3c2=O)c1OC` as the compound, how does the Potency read?
A: Its Potency is inconclusive: 17.8 µM [cytotoxic, partial curve, poor fit].

Q: Which Potency does the source give for `COc1ccc(C(=O)NCc2nnc(SCC(=O)Nc3ccc(F)cc3)n2-c2ccccc2)cc1` here?
A: Its Potency is inconclusive: 28.2 µM [cytotoxic, single point].

Q: For `Cc1cccc(-n2ncc(C(=O)Nc3ccc4c(c3)OCO4)c2C2CCN(C(=O)OC(C)(C)C)CC2)c1`, which Potency is on record?
A: The Potency was inconclusive: 1.26 µM [cytotoxic, full curve].

Q: For `O=C(c1cccc(O)c1)N1CC=C(c2cnc3cnc(-c4ccccc4)cn23)CC1`, which “activity change, negative = cytotoxicity” value is on record?
A: The value was inactive: -1.22% [at 87.6 µM].

Q: For `CCn1c(=O)c2sccc2n2c(CCC(=O)N3CCN(c4ccccc4OC)CC3)nnc12`, which Potency is on record?
A: The Potency was inconclusive: 2.51 µM [rising, partial curve, poor fit].

Q: With `CC(C)OCCCn1c(SCC(N)=O)nc2c(sc3ccccc32)c1=O` as the compound, how does the Potency read?
A: Its Potency is inconclusive: 20 µM [cytotoxic, single point].

Q: With `O=C(c1ccc(CS(=O)c2ccccc2Cl)o1)N1CCN(c2cccc(C(F)(F)F)c2)CC1` (stereo unspecified) as the compound, how does the Potency read?
A: The Potency was inconclusive: 25.1 µM [cytotoxic, partial curve, poor fit].
